The values below come from the supplement of paper PMC9446081.

The whole screen tested about 39,000 compounds, of which about 220 (0.56%) showed activity. The list shows a part of the results.
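Note: static incubation at 37 °C against the wild-type strain, values averaged over two biological replicates.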

In this assay the test system is Escherichia coli K-12 BW25113. Put plainly: relative growth (OD600 normalised to plate interquartile mean) (fraction); higher = less growth inhibition, active = 0.2 or less. The following applies: 50 µM; LB; incubation time: overnight (16-24 h).
In the case of `CC(C)c1nc(CN(C)C(=O)N[C@@H](CCN2CCOCC2)C(=O)N[C@H](CC[C@H](Cc2ccccc2)NC(=O)OCc2cncs2)Cc2ccccc2)cs1`, the relative growth was inactive: 1.01.

With `C[C@@H]1CN([C@H](C)CO)C(=O)c2cc(NC(=O)NC3CCCCC3)ccc2O[C@@H](C)CCCCO[C@@H]1CN(C)Cc1ccc(C(F)(F)F)cc1`, the relative growth was inactive: 0.968.

With `O=C(O)[C@@H]1CCCNC1`, the relative growth was inactive: 1.01.

As for `CNC[C@H]1Oc2ccc(NS(=O)(=O)c3cn(C)cn3)cc2CC(=O)N([C@H](C)CO)C[C@@H]1C`, the relative growth is inactive: 0.985.

As to `COc1ccc(S(=O)(=O)N(C)C[C@H]2Oc3c(NC(=O)c4cc(C)nn4C)cccc3C(=O)N([C@H](C)CO)C[C@H]2C)cc1`, the relative growth was inactive: 1.01.

On to `CNC(=O)c1cccc(S(N)(=O)=O)c1`, for which the relative growth is inactive: 1.04.

For the compound `C[C@@H]1CCCCO[C@@H](CN(C)Cc2ccc(C(F)(F)F)cc2)[C@@H](C)CN([C@@H](C)CO)C(=O)c2cc(NS(=O)(=O)c3cccs3)ccc2O1`, the relative growth was inactive: 1.03.

As for `O=C(C[C@H]1C[C@H]2c3cc(NC(=O)c4ccc5c(c4)OCO5)ccc3O[C@H]2[C@H](CO)O1)NCc1ccc(Oc2ccccc2)cc1`, the relative growth was inactive: 1.

Regarding `C[C@H]1CN([C@@H](C)CO)S(=O)(=O)c2ccc(-c3ccccc3F)cc2O[C@H]1CN(C)Cc1cncnc1`, the relative growth is inactive: 1.01.

Consider `C[C@H]1CN([C@@H](C)CO)C(=O)Cc2cc(NC(=O)Cc3ccccc3)ccc2O[C@@H]1CN(C)Cc1ccc(-c2ccccc2)cc1`, for which the relative growth is inactive: 0.982.

For `COc1ccc(S(=O)(=O)Nc2cccc3c2O[C@@H](CN(C)C(=O)NC(C)C)[C@@H](C)CN([C@H](C)CO)C3=O)cc1`, the relative growth was inactive: 0.991.

Turning to `CC(=O)NC1C(O)CC(O)(C(=O)O)OC1C(O)C(O)CO` (stereo not given), the relative growth was inactive: 1.21.

Take `CN(C)CCCNC(=O)C[C@H]1C=C[C@H](NS(=O)(=O)c2ccccc2)[C@@H](CO)O1`: the relative growth is inactive: 0.954.

On to `C[C@H](CO)N1C[C@H](C)[C@H](CN(C)S(=O)(=O)c2cccs2)Oc2ccc(NC(=O)CCN3CCOCC3)cc2CC1=O`, for which the relative growth was inactive: 0.981.

Regarding `CC(C)(O)[C@H]1CC[C@@](C)([C@H]2[C@@H](O)C[C@@]3(C)[C@@H]4C[C@H](O[C@@H]5O[C@H](CO)[C@@H](O)[C@H](O)[C@H]5O)[C@H]5C(C)(C)[C@@H](O[C@@H]6OC[C@@H](O)[C@H](O)[C@H]6O)CC[C@@]56C[C@@]46CC[C@]23C)O1`, the relative growth was inactive: 1.04.

For the compound `COc1ccc2c3c([nH]c2c1)[C@@H](CO)N(C[C@]13CN(CC2CCOCC2)C1)S(=O)(=O)c1cn(cn1)C`, the relative growth is inactive: 0.988.

Regarding `COc1ncccc1C#N`, the relative growth was inactive: 1.01.

For `CC(C)[C@@H]1CC[C@@H](C)CC1=O`, the relative growth was inactive: 1.

Take `C[C@@H]1CCCCO[C@H](CN(C)Cc2ccc3c(c2)OCO3)[C@@H](C)CN([C@@H](C)CO)C(=O)c2cc(NS(=O)(=O)c3cccs3)ccc2O1`: the relative growth is inactive: 0.995.

For the compound `CC(=O)c1cc2ccccc2s1`, the relative growth was inactive: 0.989.

As to `COc1ccc(S(=O)(=O)Nc2ccc3c(c2)C(=O)N([C@@H](C)CO)C[C@H](C)[C@H](CN(C)Cc2ccc(C(=O)O)cc2)OCCCC[C@@H](C)O3)cc1`, the relative growth is inactive: 0.985.

Take `C[C@@H]1CCCCO[C@@H](CN(C)S(=O)(=O)c2ccc(Cl)cc2)[C@H](C)CN([C@@H](C)CO)C(=O)c2cc(NC(=O)NC3CCCCC3)ccc2O1`: the relative growth was inactive: 1.02.

As for `CC(C)(C)[S@](=O)N1Cc2cc(C(=O)NCCc3ccncc3)nc(-c3cccc(-c4cccc(C#N)c4)c3)c2[C@@H]1CCO`, the relative growth was inactive: 1.04.

For the compound `N=C(N)NCCCCNC(=N)N.O=S(=O)(O)O`, the relative growth was inactive: 1.03.

For `Cc1noc(C)c1S(=O)(=O)Nc1ccc2c(c1)C(=O)N([C@@H](C)CO)C[C@@H](C)[C@@H](CN(C)Cc1ccncc1)O2`, the relative growth is inactive: 1.02.

Take `C[C@@H]1CN([C@H](C)CO)C(=O)c2cc(-c3ccc(C(=O)N(C)C)cc3)cnc2O[C@@H]1CN(C)C(=O)C1CC1`: the relative growth was inactive: 1.01.

Consider `Cc1noc(C)c1NC(=O)N(C)C[C@@H]1Oc2ccc(NC(=O)NC(C)C)cc2CC(=O)N([C@H](C)CO)C[C@@H]1C`, for which the relative growth is inactive: 0.964.

With `C[C@@H]1CN([C@H](C)CO)C(=O)c2cccc(NC(=O)c3cnccn3)c2O[C@@H]1CN(C)C(=O)Nc1ccc2c(c1)OCO2`, the relative growth was inactive: 0.997.

As to `C[C@@H]1CCCCO[C@@H](CN(C)C)[C@H](C)CN([C@H](C)CO)C(=O)c2cc(NC(=O)Nc3ccc(C(F)(F)F)cc3)ccc2O1`, the relative growth is inactive: 0.937.

Regarding `CC(C)NC(=O)N(C)C[C@@H]1Oc2ccc(NS(=O)(=O)c3ccccc3)cc2CC(=O)N([C@@H](C)CO)C[C@@H]1C`, the relative growth was inactive: 1.02.

As for `CN(C)CCCNC(=O)C[C@H]1CC[C@@H]2[C@@H](COc3ccc(NC(=O)c4cccc(F)c4)cc3C(=O)N2C)O1`, the relative growth was inactive: 0.979.

For the compound `Cc1ccc(S(=O)(=O)Nc2ccc3c(c2)C(=O)N([C@H](C)CO)C[C@@H](C)[C@H](CN(C)S(=O)(=O)c2ccc(F)cc2)OCCCC[C@H](C)O3)cc1`, the relative growth was inactive: 1.03.

In the case of `CCCNC(=O)Nc1ccc2c(c1)OC[C@H](C)N(C(=O)C1CCOCC1)C[C@@H](C)[C@H](OC)CN(C)C2=O`, the relative growth is inactive: 0.978.

Turning to `C[C@H]1CN([C@@H](C)CO)C(=O)c2cc(NS(=O)(=O)c3cccs3)ccc2O[C@@H]1CN(C)S(=O)(=O)c1cccs1`, the relative growth is inactive: 0.998.

For `C[C@@H]1CN([C@H](C)CO)C(=O)Cc2cc(NC(=O)CCN3CCOCC3)ccc2O[C@H]1CN(C)S(C)(=O)=O`, the relative growth was inactive: 0.987.

For the compound `O=C(C[C@@H]1CC[C@H]2[C@@H](COC[C@H](O)CN2C(=O)Nc2ccc(Cl)cc2)O1)NCCc1ccncc1`, the relative growth is inactive: 0.957.

On to `Cc1noc(C)c1S(=O)(=O)Nc1ccc2c(c1)C(=O)N([C@@H](C)CO)C[C@@H](C)[C@H](CN(C)Cc1ccc(Oc3ccccc3)cc1)O2`, for which the relative growth is inactive: 0.998.

With `C[C@@H]1CN([C@H](C)CO)C(=O)c2cccc(NC(=O)Nc3ccccc3)c2O[C@H]1CN(C)C(=O)Nc1ccc(C(F)(F)F)cc1`, the relative growth is inactive: 0.808.

Take `CNC[C@@H]1OCCCC[C@H](C)Oc2ccc(NC(=O)Nc3cccc4ccccc34)cc2C(=O)N([C@@H](C)CO)C[C@H]1C`: the relative growth was inactive: 1.02.

Regarding `CO[C@@H](CNS(C)(=O)=O)c1ccsc1`, the relative growth is inactive: 0.991.

On to `C[C@@H]1CN([C@H](C)CO)C(=O)c2cc(NC(=O)Cn3cnnn3)ccc2O[C@@H]1CN(C)S(=O)(=O)c1ccccc1`, for which the relative growth is inactive: 1.02.

As for `C[C@@H]1CN([C@@H](C)CO)C(=O)c2cc(C#Cc3ccccc3F)cnc2O[C@H]1CN(C)C(=O)c1ccc2c(c1)OCO2`, the relative growth is inactive: 0.993.

In the case of `COc1ccc(CN2C[C@@H](C)[C@@H](OC)CN(C)C(=O)c3cc(NC(=O)c4nc5ccccc5s4)ccc3OC[C@@H]2C)cc1`, the relative growth is inactive: 1.07.

Regarding `C[C@@H]1CCCCO[C@@H](CN(C)C(=O)NC2CCCCC2)[C@H](C)CN([C@@H](C)CO)C(=O)c2cc(NS(=O)(=O)c3ccc(F)cc3)ccc2O1`, the relative growth is inactive: 0.97.

As to `O=C(C[C@H]1C=C[C@H](NC(=O)C2CC2)[C@@H](CO)O1)NCCCN1CCOCC1`, the relative growth was inactive: 1.02.

Regarding `C[C@H]1CN([C@@H](C)CO)C(=O)Cc2cc(NS(=O)(=O)c3ccccc3)ccc2O[C@H]1CN(C)CC1CC1`, the relative growth was inactive: 0.981.

For the compound `C[C@@H]1CCCCO[C@H](CN(C)Cc2ccc(C(=O)O)cc2)[C@H](C)CN([C@H](C)CO)C(=O)c2cc(NS(=O)(=O)c3ccc(F)cc3)ccc2O1`, the relative growth was inactive: 0.97.

As to `COCC#Cc1ccc2c(c1)O[C@H](CN(C)S(=O)(=O)c1ccc(F)cc1)[C@@H](C)CN([C@H](C)CO)S2(=O)=O`, the relative growth was inactive: 1.03.

As for `COc1cccc(NC(=O)N(C)C[C@@H]2OCc3ccccc3-c3c(n(C)c4ccccc34)C(=O)N([C@H](C)CO)C[C@H]2C)c1`, the relative growth was inactive: 1.03.

For `C[C@@H]1CN([C@@H](C)CO)S(=O)(=O)c2ccc(Br)cc2O[C@H]1CN(C)Cc1ccccc1F`, the relative growth was inactive: 1.03.

`C[C@@H]1CCCCO[C@@H](CN(C)S(=O)(=O)c2cccs2)[C@H](C)CN([C@H](C)CO)C(=O)c2cc(NC(=O)C3CCCCC3)ccc2O1`: the relative growth is inactive: 1.02.

As for `C=C1[C@@H]2[C@H]3OC(=O)[C@@H](C)[C@@H]3[C@@H](O[C@@H]3O[C@H](CO)[C@@H](O)[C@H](O)[C@H]3O)CC(=C)[C@@H]2C[C@@H]1O`, the relative growth is inactive: 1.01.

For `COc1ccccc1C#Cc1cnc2c(c1)C(=O)N([C@@H](C)CO)C[C@@H](C)[C@@H](CN(C)C(=O)CN(C)C)O2`, the relative growth is inactive: 1.02.

For `CN(C)CC(=O)N1CC2(C1)[C@@H](c1ccccc1)[C@H](CO)N2S(C)(=O)=O`, the relative growth is inactive: 0.982.

`Cn1c([C@H]2C=C(C(=O)N[C@H]3c4ccccc4C[C@H]3O)O[C@@H](OCCCCO)C2)cc(=O)n1-c1ccccc1`: the relative growth was inactive: 1.

With `COc1ccc(NC(=O)N(C)C[C@@H]2OCCCC[C@H](C)Oc3ccc(NC(=O)Nc4ccc5c(c4)OCO5)cc3C(=O)N([C@@H](C)CO)C[C@H]2C)cc1`, the relative growth was inactive: 1.03.

Take `CC1C2CCC3C4CC=C5CC(N(C)C)CCC5(C)C4CCC32CN1C` (stereo not given): the relative growth was inactive: 1.1.

Take `Cc1noc(C)c1NC(=O)Nc1cccc2c1O[C@@H](CN(C)Cc1ccc(-c3ccccc3)cc1)[C@@H](C)CN([C@H](C)CO)C2=O`: the relative growth was inactive: 1.01.

As for `CC(=O)c1ccc2ccccc2c1`, the relative growth is inactive: 0.952.

For `COCCNCc1ccc(-c2cc3nccc(Oc4ccc(NC(=O)C5(C(=O)Nc6ccc(F)cc6)CC5)cc4F)c3s2)nc1`, the relative growth is inactive: 0.965.
